In publication PMC4336329 (PLoS ONE, 2015):
The campaign covered roughly 310,000 compounds. About 2,200 (0.71%) showed an effect of 50% or more. Effects have a minus sign here. This is one part of the list.

What follows are compounds tested against human ether-à-go-go-related gene (hERG) potassium channel (human, UniProt Q12809) (assay: primary screen, population patch clamp on CHO cells stably expressing hERG).
Chain of human ether-à-go-go-related gene (hERG) potassium channel (Q12809 whole entry, looked up): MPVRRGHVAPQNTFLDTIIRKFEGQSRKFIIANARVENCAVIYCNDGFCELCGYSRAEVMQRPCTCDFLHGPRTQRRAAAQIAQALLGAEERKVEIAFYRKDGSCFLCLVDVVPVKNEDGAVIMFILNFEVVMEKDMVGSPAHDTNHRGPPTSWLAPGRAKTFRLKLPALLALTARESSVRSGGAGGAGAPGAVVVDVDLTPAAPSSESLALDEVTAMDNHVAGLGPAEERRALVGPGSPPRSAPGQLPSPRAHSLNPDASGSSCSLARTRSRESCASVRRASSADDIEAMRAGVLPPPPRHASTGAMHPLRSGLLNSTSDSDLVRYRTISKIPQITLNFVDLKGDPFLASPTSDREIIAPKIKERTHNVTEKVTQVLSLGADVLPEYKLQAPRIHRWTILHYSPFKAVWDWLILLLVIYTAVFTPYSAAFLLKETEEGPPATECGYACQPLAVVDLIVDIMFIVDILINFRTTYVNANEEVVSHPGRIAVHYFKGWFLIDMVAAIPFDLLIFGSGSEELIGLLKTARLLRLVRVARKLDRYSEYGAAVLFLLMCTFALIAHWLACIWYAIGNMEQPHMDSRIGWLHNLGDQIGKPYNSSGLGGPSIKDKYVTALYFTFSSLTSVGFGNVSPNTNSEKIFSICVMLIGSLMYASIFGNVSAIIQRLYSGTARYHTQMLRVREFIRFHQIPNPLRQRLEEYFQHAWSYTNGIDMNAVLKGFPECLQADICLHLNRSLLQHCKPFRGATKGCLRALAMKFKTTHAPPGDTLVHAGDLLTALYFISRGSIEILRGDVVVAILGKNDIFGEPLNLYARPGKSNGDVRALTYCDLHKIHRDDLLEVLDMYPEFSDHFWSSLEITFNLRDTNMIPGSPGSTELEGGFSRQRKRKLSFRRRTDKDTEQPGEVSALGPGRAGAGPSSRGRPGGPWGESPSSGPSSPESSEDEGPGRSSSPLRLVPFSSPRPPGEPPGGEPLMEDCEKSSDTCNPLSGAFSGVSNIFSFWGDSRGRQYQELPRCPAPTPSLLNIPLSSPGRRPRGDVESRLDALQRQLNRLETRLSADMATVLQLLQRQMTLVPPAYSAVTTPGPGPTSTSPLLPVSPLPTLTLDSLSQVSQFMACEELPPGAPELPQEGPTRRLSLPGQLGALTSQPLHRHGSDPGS

Row | SMILES | hERG current change (%, negative = inhibition) at 1uM [%]
1 | CCOC(=O)CCCNC(=O)COC(=O)c1cccc(F)c1 | 16.6
2 | Cc1cc(C)cc(NC(=S)NCCc2ccc(S(N)(=O)=O)cc2)c1 | 2.42
3 | Cn1c2ccccc2c(=O)c2c(=O)n(-c3ccccc3)c(C3CCCCC3)nc21 | 9.09
4 | CC(=O)Nc1ccc(C(=O)C(Cc2ccccc2)N(C)C)cc1.Cl (stereo not shown) | 15.3
5 | CCC(C)(C)C1CCC2(CC1)NC(=O)N(CC(=O)N(C)Cc1ccc3c(c1)OCCO3)C2=O (stereo not shown) | 10.3
6 | CCOc1ccccc1NC(=O)CC1NCCNC1=O (stereo not shown) | 3.53
7 | CC1CN(C(=O)c2cn3ccccc3n2)CC(C)O1 (stereo not shown) | -3.23
8 | Cc1nn(Cc2ccccc2)c(C)c1NS(=O)(=O)c1ccccc1 | 17.9
9 | O=C(Oc1ccc(F)cc1)N1CCOCC1 | 9.32
10 | CCCn1nc(NS(=O)(=O)c2cccc3nonc23)c2cc3cc(C)ccc3nc21 | 4.58
11 | O=C(Nc1ccc(F)cc1)c1ccc2nsnc2c1 | 3.1
12 | CCCNC(=O)C1CNc2ccccc2O1 (stereo not shown) | 14.6
13 | Cc1cc(NC(=O)c2ccccc2F)n(-c2nc3ccccc3[nH]2)n1 | 12
14 | N#C/C(=C\c1ccc(O)c(O)c1)C(=O)Nc1cccc2ncccc12 | 15.7
15 | Cc1ccc(CNC(=O)CCC(=O)Nc2nnc(C(C)C)s2)cc1 | 18.6
16 | Cc1nn(Cc2ccc([N+](=O)[O-])cc2)c(=O)n1-c1c(F)cccc1F | -10.9
17 | CCCc1cc2c(OC(=O)CC)c(-c3ccc(C(=O)OCC)o3)c(=O)oc2cc1OC | 9.96
18 | COc1cc(-c2nnc(SCC(=O)O)n2-c2ccccc2)cc(OC)c1OC | 24.8
19 | CCOC(=O)Cc1csc(N/N=C\c2ccc(N(C)C)cc2)n1 | 8.06
20 | Cc1ccc(S(=O)(=O)Nc2ccc3c(c2)CCC3)cc1 | 8.07

Row | SMILES | hERG current change (%, negative = inhibition) at 1uM [%]
21 | O=C(Cn1cnc2c(nnn2Cc2ccccc2)c1=O)NCc1ccco1 | 8.24
22 | CCOC(=O)C1=NN(c2ccccc2C)C2=NC(C)=C(C(=O)OC)C(c3cccc(OC)c3)N12 (stereo not shown) | 12.6
23 | c1ccc(N2CCN(c3c4c(nc5ncnn35)CCC4)CC2)cc1 | -22.2
24 | Nc1nc(NS(=O)(=O)c2ccc(Cl)cc2)nn1-c1ccccc1 | -3.97
25 | O=C(Nc1ccc2c(c1)CCC2)C1CCN(c2ncccn2)CC1 | 13
26 | CCCC1=C(C(=O)OCC)C(c2ccc(O)cc2)n2ncnc2N1 (stereo not shown) | 3.94
27 | CC(C)N(Cc1nc(-c2ccccc2)no1)C(=O)COc1ccccc1 | 0.0963
28 | CC(C)C(=O)Nc1ccc(Sc2ccc(F)cc2)cc1 | 7.46
29 | CCOC(=O)c1sc(NC(=S)NC(=O)C2CCCC2)cc1C | 9.85
30 | Cc1ccc(Cn2nnnc2CN2CCC(NC(=O)C(C)(C)C)CC2)cc1.Cl | 7.71
31 | Cc1ccc(N2CCN(C(=S)Nc3ccc(Cl)cc3)CC2)cc1 | 13.4
32 | COc1ccccc1N1CCN(CCCn2c(=S)[nH]c3ccccc3c2=O)CC1 | -11.9
33 | CCN1CCN(C(c2cccs2)C(C)NC(=S)Nc2cc(C)ccc2C)CC1 (stereo not shown) | -12
34 | O=[N+]([O-])/C(C(Cl)=C(Cl)Cl)=C(/NC1CC1)Sc1ccccc1 | 11.7
35 | Clc1ccc(-c2nnc(CSc3nnc(-c4cccs4)o3)o2)cc1 | 4.06
36 | COc1cccc(CNS(=O)(=O)/C=C/c2ccc(OC)c(OC)c2)c1 | 5.94
37 | COc1cccc(CN2CCNC(=O)C2CC(=O)N(C)C2CCCCC2)c1OC (stereo not shown) | 14.4
38 | CCCc1c(NC(=O)Nc2ccc(Cl)cc2Cl)cnn1-c1ccccc1 | 13.7
39 | CC(C)N=C1SCC(C)(/C=N/O)S1 (stereo not shown) | -1.16
40 | CC1=NNC(=O)C1CCC(=O)N/N=C/c1ccc(Cl)cc1Cl (stereo not shown) | 12.6

Row | SMILES | hERG current change (%, negative = inhibition) at 1uM [%]
41 | C=C(C)Cn1c(N)cc(=O)nc1SCC(=O)Nc1cccc(C(F)(F)F)c1 | 13
42 | CC1CCCCN1Cc1c[nH]c2ccccc12 (stereo not shown) | 15.3
43 | CCc1ccc(NS(=O)(=O)c2ccc3[nH]c(=O)[nH]c3c2)cc1 | 9.43
44 | Cc1cc(NC(=O)COC(=O)C(Cc2ccccc2)NC(=O)c2ccco2)no1 (stereo not shown) | 13.5
45 | CCCC(CCC)n1[nH]c(=O)c2c(C)cc(C)nc21 | 3.74
46 | CCNC(=O)Nc1ccc(-n2nc(C)c(C(=O)OCC)c2C)nc1 | 14.1
47 | O=C(NNC(=O)C1CCN(S(=O)(=O)c2ccccc2)CC1)c1ccccc1O | -13.4
48 | Cn1ccsc1=NC(=O)c1ccc(=O)[nH]c1 | 11.1
49 | CCCCOc1c(Br)cc(/C=N/O)cc1OCC | 7.85
50 | O=S(=O)(c1ccc2ccccc2c1)N(CC(O)COCc1ccco1)c1ccccc1 (stereo not shown) | 11.7
51 | COc1ccc(C2C3=C(CC(C)(C)CC3=O)Oc3ncn(Cc4ccccc4)c(=N)c32)cc1 (stereo not shown) | -1.76
52 | CN1CC(c2ccccc2)Oc2ccccc2C1=S (stereo not shown) | 6.76
53 | O=C(CCc1ccc(S(=O)(=O)N2CCOCC2)cc1)NCCc1ccccn1 | -8.64
54 | O=C(O)c1sccc1Oc1ccc(NS(=O)(=O)c2cccc(F)c2)cc1 | 18.3
55 | O=C(Nc1ccccc1)C1CCN(C(=O)c2ccc([N+](=O)[O-])cc2)CC1 | -67
56 | COc1ccc(-n2nc(C(=O)NCC(=O)NC(C)C)c3ccccc3c2=O)cc1Cl | 9.57
57 | CCCCn1nc(C(=O)NCC2COc3ccccc3O2)c2ccccc2c1=O (stereo not shown) | 0.585
58 | CC(C)(C)c1cc(C(=O)NNS(=O)(=O)c2ccccc2)n[nH]1 | 14.1
